# Experimental data reported in the supplement of paper PMC8728848.
# The other results are listed elsewhere or left out.
# B1: CLEC-1 (Homo sapiens), Q9NZH3 (protein)
# chain: MQAKYSSTRDMLDDDGDTTMSLHSQASATTRHPEPRRTEHRAPSSTWRPVALTLLTLCLVLLIGLAAWGLLFFQYYQLSNTGQDTISQMEERLGNTSQELQSLQVQNIKLAGSLQHVAEKLCRELYNKAGAHRCSPCTEQWKWHGDNCYQFYKDSKSWEDCKYFCLSENSTMLKINKQEDLEFAASQSYSEFFYSYWTGLLRPDSGKAWLWMDGTPFTSELFHIIIDVTSPRSRDCVAILNGMIFSKDCKELKRCVCERRAGMVKPESLHVPPETLGEGD
# Assays:
# Assay in all cases: glycan array binding signal (z-score within array); higher = stronger binding
# Details in all cases: glycan notation: IUPAC condensed, linker removed
# [1] = molecular target: Gal(b1-4)GlcNAc(b1-3)Gal(b1-4)GlcNAc(b1-3)Gal(b1-4)GlcNAc
# Outline: (§1)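 The binding signal is a Z-score computed within each array. Data were drawn from 3228 arrays in the Consortium for Functional Glycomics database, restricted to those with a known protein sequence. Scores were averaged over arrays of the same protein sequence at different concentrations or buffers, and over linkers, and negative values can be taken as non-binding.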
# [2] = molecular target: Gal(b1-4)GlcNAc(b1-3)Gal(b1-4)[Fuc(a1-3)]GlcNAc(b1-3)Gal(b1-4)[Fuc(a1-3)]GlcNAc
# Outline: as §1
# [3] = molecular target: Gal(b1-4)GlcNAc(b1-3)GalNAc
# Outline: as §1
# [4] = molecular target: Gal(b1-4)GlcNAc(b1-3)[Gal(b1-4)GlcNAc(b1-6)]Gal(b1-4)GlcNAc
# Outline: as §1
# [5] = molecular target: Gal(b1-4)GlcNAc(b1-3)[Gal(b1-4)GlcNAc(b1-6)]GalNAc
# Outline: as §1
# [6] = molecular target: Gal(b1-4)GlcNAc(b1-3)[GlcNAc(b1-6)]Gal(b1-4)GlcNAc
# Outline: as §1
# [7] = molecular target: Gal(b1-4)GlcNAc(b1-6)Gal(b1-4)GlcNAc
# Outline: as §1
# [8] = molecular target: Gal(b1-4)GlcNAc(b1-6)Gal(b1-4)GlcNAc(b1-6)GalNAc
# Outline: as §1
# [9] = molecular target: Gal(b1-4)GlcNAc(b1-6)GalNAc
# Outline: as §1
# [10] = molecular target: Gal(b1-4)GlcNAc(b1-6)[Gal(b1-3)]GalNAc
# Outline: as §1
# [11] = molecular target: Gal3S(b1-3)GalNAc
# Outline: as §1
# [12] = molecular target: Gal3S(b1-3)GlcNAc
# Outline: as §1
# [13] = molecular target: Gal3S(b1-3)[Fuc(a1-4)]GlcNAc
# Outline: as §1
# [14] = molecular target: Gal3S(b1-4)Glc
# Outline: as §1
# [15] = molecular target: Gal3S(b1-4)Glc6S
# Outline: as §1
# [16] = molecular target: Gal3S(b1-4)GlcNAc
# Outline: as §1
# [17] = molecular target: Gal3S(b1-4)GlcNAc6S
# Outline: as §1
# [18] = molecular target: Gal3S(b1-4)[Fuc(a1-3)]Glc
# Outline: as §1
# [19] = molecular target: Gal3S(b1-4)[Fuc(a1-3)]Glc6S
# Outline: as §1
# [20] = molecular target: Gal3S4S(b1-4)GlcNAc
# Outline: as §1
# [21] = molecular target: Gal3S6S(b1-4)GlcNAc
# Outline: as §1
# [22] = molecular target: Gal3S6S(b1-4)GlcNAc6S
# Outline: as §1
# [23] = molecular target: Gal4S(b1-4)GlcNAc
# Outline: as §1
# [24] = molecular target: Gal4S6S(b1-4)GlcNAc
# Outline: as §1
# [25] = molecular target: Gal6S(b1-4)Glc
# Outline: as §1
# [26] = molecular target: Gal6S(b1-4)Glc6S
# Outline: as §1
# [27] = molecular target: Gal6S(b1-4)GlcNAc
# Outline: as §1
# [28] = molecular target: Gal6S(b1-4)GlcNAc6S
# Outline: as §1
# [29] = molecular target: GalNAc(a1-3)Gal
# Outline: as §1
# [30] = molecular target: GalNAc(a1-3)GalNAc
# Outline: as §1
# [31] = molecular target: GalNAc(a1-3)GalNAc(a1-3)Gal(a1-4)Gal(b1-4)GlcNAc
# Outline: as §1
# [32] = molecular target: GalNAc(b1-3)Gal
# Outline: as §1
# [33] = molecular target: GalNAc(b1-3)Gal(a1-4)Gal(b1-4)GlcNAc
# Outline: as §1
# [34] = molecular target: GalNAc(b1-3)Gal(a1-4)Gal(b1-4)GlcNAc(b1-3)Gal(b1-4)Glc
# Outline: as §1
# [35] = molecular target: GalNAc(b1-3)Gal(a1-6)Gal(b1-4)Glc
# Outline: as §1
# [36] = molecular target: GalNAc(b1-3)GalNAc
# Outline: as §1
# [37] = molecular target: GalNAc(b1-4)GlcNAc
# Outline: as §1
binder,measurement,setting,value
B1,glycan array binding signal (z-score),[1],-0.162
same,glycan array binding signal (z-score),[2],0.143
same,glycan array binding signal (z-score),[3],-0.261
same,glycan array binding signal (z-score),[4],-0.521
same,glycan array binding signal (z-score),[5],-0.279
same,glycan array binding signal (z-score),[6],0.05
same,glycan array binding signal (z-score),[7],1.75
same,glycan array binding signal (z-score),[8],-0.203
same,glycan array binding signal (z-score),[9],0.105
same,glycan array binding signal (z-score),[10],-0.132
same,glycan array binding signal (z-score),[11],-0.341
same,glycan array binding signal (z-score),[12],-0.358
same,glycan array binding signal (z-score),[13],1.09
same,glycan array binding signal (z-score),[14],-0.133
same,glycan array binding signal (z-score),[15],0.212
same,glycan array binding signal (z-score),[16],-0.161
same,glycan array binding signal (z-score),[17],0.002
same,glycan array binding signal (z-score),[18],0.393
same,glycan array binding signal (z-score),[19],0.318
same,glycan array binding signal (z-score),[20],0.269
same,glycan array binding signal (z-score),[21],0.184
same,glycan array binding signal (z-score),[22],3.17
same,glycan array binding signal (z-score),[23],-0.356
same,glycan array binding signal (z-score),[24],0.053
same,glycan array binding signal (z-score),[25],-0.213
same,glycan array binding signal (z-score),[26],0.159
same,glycan array binding signal (z-score),[27],-0.252
same,glycan array binding signal (z-score),[28],0.66
same,glycan array binding signal (z-score),[29],-0.34
same,glycan array binding signal (z-score),[30],0.165
same,glycan array binding signal (z-score),[31],-0.107
same,glycan array binding signal (z-score),[32],-0.362
same,glycan array binding signal (z-score),[33],-0.23
same,glycan array binding signal (z-score),[34],-0.22
same,glycan array binding signal (z-score),[35],-0.789
same,glycan array binding signal (z-score),[36],-0.359
same,glycan array binding signal (z-score),[37],-0.283
